The other results are listed elsewhere or left out. Single values are uncertain, as repeats are few or missing.
tested on: 501Mel; experiment: cell count relative to DMSO control; melanoma cells; higher = more viable cells; conditions: library dose: low library concentration; 72 h
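Note: cell number obtained by counting DAPI-stained nuclei in high-throughput microscope images with image analysis software, screen run in 1,536-well plates.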

Compound	cell count [%]
CCCCCCCCCCCCCCCCCCOP(=O)([O-])OC1CC[N+](C)(C)CC1 [Perifosine] + N.N.[Cl][Pt][Cl] [cisplatin] (first compound 0.4 µM, partner dose 1.6 µM)	86.7
Cc1ccc(Nc2nccc(N(C)c3ccc4c(C)n(C)nc4c3)n2)cc1S(N)(=O)=O [Pazopanib] + N.N.[Cl][Pt][Cl] [cisplatin] (first compound 0.4 µM, partner dose 1.6 µM)	153
O=c1[nH]nc(Sc2ncc([N+](=O)[O-])s2)n1-c1ccc2c(c1)OCCO2 + N.N.[Cl][Pt][Cl] [cisplatin] (first compound 0.2 µM, partner dose 1.6 µM)	77.1
C[C@]1(O)C[C@@H](c2nc(-c3ccc4ccc(-c5ccccc5)nc4c3)c3c(N)nccn32)C1 + C[As](C)SC[C@H](NC(=O)CC[C@H](N)C(=O)O)C(=O)NCC(=O)O [Darinaparsin] (first compound 0.4 µM, partner dose 0.4 µM)	54.7
Cn1sc(=O)n(Cc2ccccc2)c1=O + C[As](C)SC[C@H](NC(=O)CC[C@H](N)C(=O)O)C(=O)NCC(=O)O [Darinaparsin] (first compound 0.4 µM, partner dose 0.4 µM)	122
N#CC[C@H](C1CCCC1)n1cc(-c2ncnc3[nH]ccc23)cn1 [ruxolitinib] + C[As](C)SC[C@H](NC(=O)CC[C@H](N)C(=O)O)C(=O)NCC(=O)O [Darinaparsin] (first compound 1 µM, partner dose 0.4 µM)	85.7
O=c1[nH]nc(Sc2ncc([N+](=O)[O-])s2)n1-c1ccc2c(c1)OCCO2 + Cn1cc(C2=C(c3cn(C4CCN(Cc5ccccn5)CC4)c4ccccc34)C(=O)NC2=O)c2ccccc21 [Enzastaurin] (first compound 0.2 µM, partner dose 0.8 µM)	114
CCCCCCCCc1ccc(CCC(N)(CO)CO)cc1 [fingolimod] + N.N.[Cl][Pt][Cl] [cisplatin] (first compound 2 µM, partner dose 1.6 µM)	30.2
CNC(=O)c1cc(Oc2ccc(NC(=O)Nc3ccc(Cl)c(C(F)(F)F)c3)cc2)ccn1 [sorafenib] + C[As](C)SC[C@H](NC(=O)CC[C@H](N)C(=O)O)C(=O)NCC(=O)O [Darinaparsin] (first compound 0.4 µM, partner dose 0.4 µM)	75.1
O=C(Nc1cc(C(F)(F)F)cc(C(F)(F)F)c1)c1cc(Cl)ccc1O + Cn1cc(C2=C(c3cn(C4CCN(Cc5ccccn5)CC4)c4ccccc34)C(=O)NC2=O)c2ccccc21 [Enzastaurin] (first compound 0.016 µM, partner dose 0.8 µM)	96.6
CC1(C)CCC(c2ccc(Cl)cc2)=C(CN2CCN(c3ccc(C(=O)NS(=O)(=O)c4ccc(N[C@H](CCN5CCOCC5)CSc5ccccc5)c(S(=O)(=O)C(F)(F)F)c4)cc3)CC2)C1 + C[As](C)SC[C@H](NC(=O)CC[C@H](N)C(=O)O)C(=O)NCC(=O)O [Darinaparsin] (first compound 0.4 µM, partner dose 0.4 µM)	65
CCN(CC)CCNC(=O)c1c(C)[nH]c(/C=C2\C(=O)Nc3ccc(F)cc32)c1C [sunitinib] + C[As](C)SC[C@H](NC(=O)CC[C@H](N)C(=O)O)C(=O)NCC(=O)O [Darinaparsin] (first compound 0.4 µM, partner dose 0.4 µM)	89.5
Cc1ccc(Nc2nccc(N(C)c3ccc4c(C)n(C)nc4c3)n2)cc1S(N)(=O)=O [Pazopanib] + C[C@]12O[C@H](C[C@]1(O)CO)n1c3ccccc3c3c4c(c5c6ccccc6n2c5c31)CNC4=O [Lestaurtinib] (first compound 0.4 µM, partner dose 0.004 µM)	106
CC[C@]1(O)C[C@H]2CN(CCc3c([nH]c4ccccc34)[C@@](C(=O)OC)(c3cc4c(cc3OC)N(C=O)[C@H]3[C@@](O)(C(=O)OC)[C@H](OC(C)=O)[C@]5(CC)C=CCN6CC[C@]43[C@@H]65)C2)C1 [vincristine] + C[C@]12O[C@H](C[C@]1(O)CO)n1c3ccccc3c3c4c(c5c6ccccc6n2c5c31)CNC4=O [Lestaurtinib] (first compound 0.0001 µM, partner dose 0.004 µM)	77.9
CC(=O)c1c(C)c2cnc(Nc3ccc(N4CCNCC4)cn3)nc2n(C2CCCC2)c1=O [palbociclib] + C[As](C)SC[C@H](NC(=O)CC[C@H](N)C(=O)O)C(=O)NCC(=O)O [Darinaparsin] (first compound 0.04 µM, partner dose 0.4 µM)	26.9
CC[C@]1(O)C[C@H]2CN(CCc3c([nH]c4ccccc34)[C@@](C(=O)OC)(c3cc4c(cc3OC)N(C=O)[C@H]3[C@@](O)(C(=O)OC)[C@H](OC(C)=O)[C@]5(CC)C=CCN6CC[C@]43[C@@H]65)C2)C1 [vincristine] + Cn1cc(C2=C(c3cn(C4CCN(Cc5ccccn5)CC4)c4ccccc34)C(=O)NC2=O)c2ccccc21 [Enzastaurin] (first compound 0.0001 µM, partner dose 0.8 µM)	90.9
CC[C@]1(O)C[C@H]2CN(CCc3c([nH]c4ccccc34)[C@@](C(=O)OC)(c3cc4c(cc3OC)N(C=O)[C@H]3[C@@](O)(C(=O)OC)[C@H](OC(C)=O)[C@]5(CC)C=CCN6CC[C@]43[C@@H]65)C2)C1 [vincristine] + C[As](C)SC[C@H](NC(=O)CC[C@H](N)C(=O)O)C(=O)NCC(=O)O [Darinaparsin] (first compound 0.0001 µM, partner dose 0.4 µM)	53.4
Cn1sc(=O)n(Cc2ccccc2)c1=O + C[C@]12O[C@H](C[C@]1(O)CO)n1c3ccccc3c3c4c(c5c6ccccc6n2c5c31)CNC4=O [Lestaurtinib] (first compound 0.4 µM, partner dose 0.004 µM)	102
N#CC[C@H](C1CCCC1)n1cc(-c2ncnc3[nH]ccc23)cn1 [ruxolitinib] + Cn1cc(C2=C(c3cn(C4CCN(Cc5ccccn5)CC4)c4ccccc34)C(=O)NC2=O)c2ccccc21 [Enzastaurin] (first compound 1 µM, partner dose 0.8 µM)	72.7
Cc1cn(-c2cc(NC(=O)c3ccc(C)c(Nc4nccc(-c5cccnc5)n4)c3)cc(C(F)(F)F)c2)cn1 [nilotinib] + N.N.[Cl][Pt][Cl] [cisplatin] (first compound 0.2 µM, partner dose 1.6 µM)	34.2
CCCS(=O)(=O)Nc1ccc(F)c(C(=O)c2c[nH]c3ncc(Cl)cc23)c1F + C[As](C)SC[C@H](NC(=O)CC[C@H](N)C(=O)O)C(=O)NCC(=O)O [Darinaparsin] (first compound 0.08 µM, partner dose 0.4 µM)	103
N#CC[C@H](C1CCCC1)n1cc(-c2ncnc3[nH]ccc23)cn1 [ruxolitinib] + N.N.[Cl][Pt][Cl] [cisplatin] (first compound 1 µM, partner dose 1.6 µM)	88.9
Nc1ncn([C@H]2C[C@H](O)[C@@H](CO)O2)c(=O)n1 [decitabine] + C[As](C)SC[C@H](NC(=O)CC[C@H](N)C(=O)O)C(=O)NCC(=O)O [Darinaparsin] (first compound 0.1 µM, partner dose 0.4 µM)	114
Cn1sc(=O)n(Cc2ccccc2)c1=O + N.N.[Cl][Pt][Cl] [cisplatin] (first compound 0.4 µM, partner dose 1.6 µM)	65.2
Cn1cnc2c(F)c(Nc3ccc(Br)cc3Cl)c(C(=O)NOCCO)cc21 [selumetinib] + C[C@]12O[C@H](C[C@]1(O)CO)n1c3ccccc3c3c4c(c5c6ccccc6n2c5c31)CNC4=O [Lestaurtinib] (first compound 0.015 µM, partner dose 0.004 µM)	41.5
O=C(Nc1cc(C(F)(F)F)cc(C(F)(F)F)c1)c1cc(Cl)ccc1O + C[C@]12O[C@H](C[C@]1(O)CO)n1c3ccccc3c3c4c(c5c6ccccc6n2c5c31)CNC4=O [Lestaurtinib] (first compound 0.016 µM, partner dose 0.004 µM)	107
O=C(O)[C@@H]1[O][Sb](=[O])([O][Sb]2(=[O])[O][C@H]([C@H](O)CO)[C@H](O)[C@H](C(=O)O)[O]2)[O][C@H]([C@H](O)CO)[C@@H]1O (stereo not given in full) [stibogluconate] + C[As](C)SC[C@H](NC(=O)CC[C@H](N)C(=O)O)C(=O)NCC(=O)O [Darinaparsin] (first compound 2 µM, partner dose 0.4 µM)	76.3
Cc1cc(Nc2cc(N3CCN(C)CC3)nc(/C=C/c3ccccc3)n2)n[nH]1 + N.N.[Cl][Pt][Cl] [cisplatin] (first compound 0.04 µM, partner dose 1.6 µM)	56.1
CN(c1ncccc1CNc1nc(Nc2ccc3c(c2)CC(=O)N3)ncc1C(F)(F)F)S(C)(=O)=O + C[As](C)SC[C@H](NC(=O)CC[C@H](N)C(=O)O)C(=O)NCC(=O)O [Darinaparsin] (first compound 0.08 µM, partner dose 0.4 µM)	16.4
C[C@@H](N)c1ccc(C(=O)Nc2ccnc3[nH]ccc23)cc1 + N.N.[Cl][Pt][Cl] [cisplatin] (first compound 0.4 µM, partner dose 1.6 µM)	141
